Among all 420,000 compounds or so, about 50,000 (12%) were called active. Inconclusive results, whose numbers are uncertain, are shown with a selection of clear calls. Calls come from the whole dose curve; as a rule, active = well fitted inhibition curve with a large enough effect; inconclusive = small, poorly fitted or top-dose-only effect; inactive = flat fitted curve, though single readings scatter. Potencies of inconclusive entries are left out as doubtful fits.
experiment: qHTS for Inhibitors of human tyrosyl-DNA phosphodiesterase 1 (TDP1): qHTS in cells in presence of CPT; settings: chicken DT40 Tdp1-/-;hTDP1 cells + 20 nM CPT, ATP luminescence, 48 h; activity change, negative = growth inhibition: at 46.2 µM (top of the series) unless noted; note: nearly all actives have a fitted effect of over 55% in size
Procedure, shortened: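 Chicken DT40 Tdp1-/- cells complemented with human TDP1, 400 cells/well, exposed to compounds plus 20 nM camptothecin for at least 48 h at 37 C; viability read as ATP content by CellTiter-Glo luminescence.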
% is set by controls: 0 for no effect and ±100 for the full control effect; potency is the fitted concentration of half-maximal effect; tags give direction and shape of the fitted curve.

Compound | Potency | activity change, negative = growth inhibition
Cc1ccc(Oc2ccccc2NC(=O)CSCC(=O)Nc2cc(C)on2)cc1 | active: 8.2 µM | –
COc1cccc(OC)c1C(=O)Nc1ccccc1Sc1ccccc1 | inconclusive [inhibitor, single point] | –
Cc1cccc(Oc2ccc(NC(=O)C3=CC=CN4CCS(=O)(=O)N=C34)cc2)c1 | inconclusive [inhibitor, partial curve, poor fit] | –
O=C(c1csnn1)N1CCC2(CC1)CN(c1ccccn1)C2 | inconclusive [inhibitor, partial curve] | –
Cc1nn2c(N3CCCC3)c3c(nc2c1-c1ccccc1)CCC3 | inconclusive [inhibitor, single point] | –
Cc1nn(C)c(Sc2ccccc2N)c1[N+](=O)[O-] | inconclusive [inhibitor, single point] | –
CCOc1cc(CNCC(C)C)cc(Cl)c1OCc1ccccc1 | inconclusive [inhibitor, single point] | –
O=C(Nc1ccc(Cl)cc1)Nc1ccc(Br)cn1 | active: 18.4 µM | –
COc1cccc(CNC(=O)C2CCCN(c3nnc(-n4c(C)ccc4C)s3)C2)c1OC (stereo not drawn) | inconclusive [inhibitor, single point] | –
CC(C)(C)c1cc(NC(=O)CCl)n(-c2ccccc2)n1 | inconclusive [inhibitor, single point] | –
Cc1ccccc1N=Nc1c(O)n(C)c2ccccc12 | inconclusive [inhibitor, single point] | –
COc1cccc2c1C(=O)c1c(O)c3c(c(O)c1C2=O)CC(O)(C(C)=O)CC3OC1CC(O)C(O)C(C)O1 (stereo not drawn) | active: 1.16 µM | –
COc1ccc(OCC(=O)N/N=c2\oc3c(OC)cccc3cc2C(N)=O)cc1 | – | inactive: -7.25%
Cc1cccc(-c2nnc(SCC(=O)N3c4ccccc4CCc4ccccc43)n2C)c1 | inconclusive [inhibitor, single point] | –
CC(C)(C)C(=O)c1c(N)[nH]c(C(=O)c2ccccc2)c1-c1ccc(Br)cc1 | active: 20.6 µM | –
CC(=O)N1CCCc2ccc(NC(=O)c3ccc(OC(C)C)cc3)cc21 | inconclusive [inhibitor, single point] | –
Cc1cccc(NC(=O)CSc2nc(C3CC3)nc3ccccc23)c1 | inconclusive [inhibitor, single point] | –
Cc1ccc2nc(COc3ccccc3NC(=O)Nc3ccc(F)c(Cl)c3)cc(=O)n2c1 | active: 11.6 µM | –
c1ccc(CCn2nnnc2C(c2cccnc2)N2CCN(c3nc4ccccc4s3)CC2)cc1 (stereo not drawn) | active: 18.4 µM | –
COc1cc(C(=O)COC(=O)c2ccncc2)cc(OC)c1OC | – | inactive: -2.37%
COc1ccccc1CN1CCC2(CC1)CCN(C(=O)c1csnn1)CC2 | – | inactive: -1.72%
CN(C)C(=O)C1C2NC(=S)N(c3ccc(Cl)cc3)C1(C)Oc1ccc(Cl)cc12 (stereo not drawn) | inconclusive [inhibitor, single point] | –
COc1ccc(-c2cc(C(F)F)n3ncc(C(=O)NCC4CCCO4)c3n2)cc1 (stereo not drawn) | inconclusive [inhibitor, single point] | –

Compound | Potency | activity change, negative = growth inhibition
CCC(Oc1ccccc1)C(=O)N(Cc1ccccc1)c1ccccn1 (stereo not drawn) | inconclusive [inhibitor, single point] | –
COc1ccc(Oc2nc3c(c(=O)n(C)c(=O)n3C)n2Cc2ccccc2)cc1 | inconclusive [inhibitor, single point] | –
Cc1occc1C(=O)NC(C)C12CC3CC(CC(C3)C1)C2 (stereo not drawn) | inconclusive [inhibitor, single point] | –
CCCOc1ccc(N2C(=O)CC(SCCc3nc4ccccc4[nH]3)C2=O)cc1 (stereo not drawn) | – | inconclusive: -32.5% [inhibitor]
Cc1ccc(NS(=O)(=O)c2cc(C(=O)NCCSC3CCCCC3)ccc2C)cc1 | inconclusive [inhibitor, single point] | –
COC(=O)[C@]12CCCCC=C1N(CCc1ccc(OC)c(OC)c1)C(=O)[C@H](CC(=O)NCC13CC4CC(CC(C4)C1)C3)C2 | inconclusive [inhibitor, partial curve, poor fit] | –
CCOC(=O)C(=O)N(C)c1c(CC)nc2c(OCc3ccc(OC)cc3)cccn12 | inconclusive [inhibitor, single point] | –
Cc1noc(C)c1COC(=O)c1cccc(S(=O)(=O)N2CCOCC2)c1 | inconclusive [inhibitor, single point] | –
COc1ccc(NC(=O)C2CCN(C(=O)Nc3ccccc3)CC2)cc1S(=O)(=O)N(C)C | – | inactive: -16.3%
Cc1ccc(NC(=O)Cn2c3ccc(F)cc3c3nc4n(c(=O)c32)CCS4)cc1F | inconclusive [inhibitor, single point] | –
C=C(C)COc1ccc2c(c1)CCC1C2CCC2(C)C(=O)C(=NO)CC12 (stereo not drawn) | active: 16.4 µM | –
CCc1cccc(CC)c1N(COC)C(=O)Cn1c(CO)nc2ccccc21 | inconclusive [inhibitor, single point] | –
Cc1ccc(-n2c3nc(=O)n(C)c(=O)c-3cc3ccccc32)c(C)c1 | – | inactive: -13%
CN(C)S(=O)(=O)c1cccc(NC(=O)CNc2cccc(S(=O)(=O)N3CCCCC3)c2)c1 | inconclusive [inhibitor, single point] | –
CC[C@@H](C)[C@@H]1CN([C@@H](CN2CCC[C@H]2CN2C(N)=NC[C@@H]2Cc2ccccc2)C(C)C)C(=N)N1CCCC1CCCC1 | inconclusive [inhibitor, single point] | –
Clc1ccccc1Nc1nc(NCc2ccccc2)nc2ccsc12 | active: 9.2 µM | –
O=C(Nc1ccccc1O)c1ccc(NS(=O)(=O)c2cccc3cccnc23)cc1 | active: 4.11 µM | –
COc1cccc(CNC(=O)CCC(=O)n2ncc3cc(C)ccc32)c1OC | – | inactive: -9.73%
Cc1cn(CC(=O)NCCc2c[nH]c3ccccc23)c(=O)[nH]c1=O | – | inactive: -27.1%
CCc1c(C)nc2c(Br)cccc2c1SCCC#N | inconclusive [inhibitor, single point] | –
COc1ccc(/C=C/c2nc(C#N)c(N3CCCCC3)o2)cc1OC | active: 23.1 µM | –
c1ccc(N=C2SCCCS2)cc1 | – | inactive: -9.75%
CCOc1ccc(Oc2ccc(NS(=O)(=O)c3ccc(CCC(=O)O)cc3)cc2)cc1 | – | inactive: -11.7%

Compound | Potency | activity change, negative = growth inhibition
COc1ccccc1NS(=O)(=O)c1cc(C(=O)N2CCCCCCC2)ccc1C | inconclusive [inhibitor, single point] | –
COc1ccc(S(=O)(=O)c2c(Nc3cccc(Cl)c3)sc(C(=O)c3ccccc3)c2N)cc1 | inconclusive [inhibitor, single point] | –
COc1ccc(-c2csc(NCCc3nc4cc(Cl)c(Cl)cc4n3CCCO)n2)cc1 | inconclusive [inhibitor, single point] | –
Cc1c(C)c2c(C)nn(-c3ccccc3)c2[nH]c1=O | – | inconclusive: -9.54% [inhibitor]
CCCCN(Cc1cc2cc(C)ccc2[nH]c1=O)C(=O)c1cccc(Cl)c1 | inconclusive [inhibitor, partial curve] | –
O=C(CSc1nc2ccccc2c(=O)n1-c1ccc(OC(F)F)cc1)NC1CC1 | inconclusive [inhibitor, single point] | –
O=C(N[C@H]1C/C=C\C[C@@H](CC(=O)N(CCO)Cc2ccccc2)C(=O)NC[C@H](c2ccccc2)OC1=O)OCC1c2ccccc2-c2ccccc21 | active: 3.66 µM | –
O=C(Nc1ccc(N2C(=O)c3cccc4cccc(c34)C2=O)cc1)c1ccc(N2CCCCC2)c([N+](=O)[O-])c1 | inconclusive [inhibitor, partial curve] | –
CCOC(=O)CNNC(=O)Nc1ccc(Cl)c(Cl)c1 | – | inactive: -9.4%
Cc1cccc(C(=O)N2CCc3ccccc3C2)c1[N+](=O)[O-] | inconclusive [inhibitor, partial curve, poor fit] | –
CCc1ccc(NC(=O)Cn2ncn3c(cc4ccccc43)c2=O)cc1 | inconclusive [inhibitor, single point] | –
CCOc1ccc(N(Cc2cc3cc(C)ccc3[nH]c2=O)C(=O)COC)cc1 | – | inconclusive: -31.5% [inhibitor]
CCOC(=O)C1(C)C=C(Nc2ccc(OCC)cc2)C(=O)N1c1ccccc1 (stereo not drawn) | inconclusive [inhibitor, single point] | –
O=C(NCc1cccc(C(F)(F)F)c1)c1cccc(S(=O)(=O)NCc2ccccc2)c1 | inconclusive [inhibitor, single point] | –
Cc1ccc2[nH]c(CNC(=O)C3CCCCC3)cc2c1 | – | inactive: 13.5%
COc1ccccc1CNc1nc(Nc2ccccc2-n2cccn2)c2sccc2n1 | active: 14.6 µM | –
Cc1c(C(=O)N2CCCCC2)c(S(=O)(=O)N2CCc3ccccc32)c(C)n1C | – | inactive: -13.6%
COc1ccccc1Cn1c(=O)c2ccccc2n2c(SCc3csc(C)n3)nnc12 | inconclusive [inhibitor, single point] | –
NC(=O)C(c1ccccc1)c1ccc(C(=O)c2ccccc2)cc1 (stereo not drawn) | – | inactive: -18.5%
N#Cc1ccc2sn(-c3ccccc3)c(=O)c2c1 | active: 3.66 µM | –
Cc1ccc(C)c(S(=O)(=O)Nc2ccc(C(=O)N3CCCCC3)cc2)c1 | inconclusive [inhibitor, single point] | –
CCN(CC)S(=O)(=O)c1cccc(C(=O)NC(C)C(c2cccs2)N2CCCC2)c1 (stereo not drawn) | inconclusive [inhibitor, single point] | –

Source: PubChem BioAssay AID686979 (National Center for Advancing Translational Sciences (NCATS), 2013)
